Data on 61 molecules can be found in PubChem BioAssay AID1159614 (National Center for Advancing Translational Sciences (NCATS), 2016).

Out of some 45,000 compounds screened, about 65 (0.1%) were called active. Calls follow the shape of the dose curve; as a rule, active = well fitted activation curve with a large enough effect; inconclusive = small, poorly fitted or top-dose-only effect; inactive = no such curve, though single readings can be large or run the other way. Some of the results follow.

For this assay, the target named is Galactocerebrosidase (Homo sapiens) (UniProt P54803). As to the kind of experiment: A Novel Cell-Based Assay to Identify Small Molecules for B -Galactocerebrosidase. Also: 0% is about no effect; nearly all actives have a fitted effect of over 65% in size. To be noted: 145M-Twi-hGALC-G270D cells (Twitcher mouse brain line with human GALC G270D), HMU-beta-Gal fluorescence, 48 h; series mostly up to 57.5 µM; activation: at the top concentration. Put shortly: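 Fluorescence readout: HMU-β-gal cleavage by mutant GALC (0.1 mM final, citrate/phosphate pH 5.2 with 1 mg/mL taurocholate), stopped with carbonate/bicarbonate plus Triton X-100. Cells: murine Twitcher 145M-Twi expressing human G270D GALC; qHTS for activators.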
UniProt P54803, sequence (P54803 whole entry, looked up): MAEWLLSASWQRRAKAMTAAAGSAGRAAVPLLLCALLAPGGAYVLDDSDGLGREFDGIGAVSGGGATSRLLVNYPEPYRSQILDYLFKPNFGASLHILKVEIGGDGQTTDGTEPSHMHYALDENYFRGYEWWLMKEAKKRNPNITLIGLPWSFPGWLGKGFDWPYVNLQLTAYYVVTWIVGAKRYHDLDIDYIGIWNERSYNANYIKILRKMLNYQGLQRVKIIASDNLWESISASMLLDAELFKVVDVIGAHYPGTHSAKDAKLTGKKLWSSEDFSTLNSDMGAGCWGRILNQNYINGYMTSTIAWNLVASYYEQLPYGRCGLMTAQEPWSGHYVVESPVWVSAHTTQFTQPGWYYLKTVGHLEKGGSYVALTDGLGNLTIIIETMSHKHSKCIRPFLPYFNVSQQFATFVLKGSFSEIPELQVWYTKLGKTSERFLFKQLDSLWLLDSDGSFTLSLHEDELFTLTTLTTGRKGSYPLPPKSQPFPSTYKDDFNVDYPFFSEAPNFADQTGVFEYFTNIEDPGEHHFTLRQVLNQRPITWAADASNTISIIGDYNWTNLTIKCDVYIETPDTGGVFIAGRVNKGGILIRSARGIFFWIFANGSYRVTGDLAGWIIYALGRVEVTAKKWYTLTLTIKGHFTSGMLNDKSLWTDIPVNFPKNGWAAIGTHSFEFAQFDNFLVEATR
As for `O=C(c1ccc2c(c1)N(Cc1ccc(F)cc1)C(=O)c1ccccc1S2=O)N1CCOCC1` (stereo unspecified), the “activation” value is inactive: -12.1%.
With `CCC(Sc1nc2ccccc2c2nc(CCc3c(C)n[nH]c3C)nn12)C(=O)Nc1ccc(OC)cc1` (stereo unspecified), the “activation” value is inactive: -15.7%.
As to `O=C(Nc1nnc(N2CCCCCC2)s1)Nc1ccccc1C(F)(F)F`, the “activation” value is inactive: -4.87%.
With `COc1cc(C(=O)Nc2nc3c(s2)Cc2c(Br)ccc(OC)c2-3)cc(OC)c1OC`, the “activation” value is inactive: -14.7%.
`COc1ccc(Cl)cc1NC(=O)CSc1c2c(nc3ccccc13)CCC2`: the “activation” value is inactive: -7.56%.
Regarding `CCN1CCN(c2nnc(-n3cccc3C(=O)Nc3cccc(OC)c3)s2)CC1`, the “activation” value is inactive: -17%.
Regarding `O=C(Cn1ccn(-c2ccc(F)c(F)c2)c(=O)c1=O)c1ccc(F)cc1`, the “activation” value is inactive: -10.5%.
Turning to `CC(C)c1nn2c(=O)cc(COC(=O)CNC(=O)c3ccccc3Cl)nc2s1`, the “activation” value is inactive: -15.4%.
Under `CCn1c(=O)sc2cc(NC(=O)c3cccc(OC)c3)ccc21` stands inactive: 4.21%; under `COc1ccc(C2CC(=O)c3c(C)nc(N4CCN(C=O)CC4)nc3C2)c(OC)c1` (stereo unspecified), inactive: -11.2%.
On to `Cc1nnc(NC(=O)CSc2nccn2-c2ccc(Cl)cc2)s1`, for which the “activation” value is inactive: -4.28%.
Regarding `CCC(C)n1c(SCc2ccc(C(C)(C)C)cc2)nc2ccsc2c1=O` (stereo unspecified), the “activation” value was inactive: 2.22%.
With `CCOc1ccc(Cn2c(CNS(=O)(=O)c3c(C)cc(C)cc3C)nc3cccnc32)cc1`, the “activation” value was inactive: -0.367%.
In the case of `Cc1ccc(OCc2nc(-c3ccc(C(=O)N4CCN(c5cc(Cl)ccc5C)CC4)cc3)oc2C)cc1`, the “activation” value was inactive: -12.3%.
In the case of `Oc1cn2c(n1)Nc1ccc(Cl)c(Cl)c1C2`, the “activation” value was inactive: -18.1% [at 23.8 µM].
In the case of `O=S(=O)(c1ccccc1)c1nc(-c2cccs2)oc1SCc1ccccc1Cl`, the “activation” value was inactive: -5.58%.
On to `CCOC(=O)c1c(-c2ccc(C)cc2)csc1NC(=O)c1cc(=O)c2cc(Cl)ccc2o1`, for which the “activation” value is inactive: -17.7%.
With `O=C(CC1NCCNC1=O)Nc1ccccc1F` (stereo unspecified), the “activation” value was inactive: -7.77%.
For the molecule `CCOc1ccccc1NC(=O)CSc1nc2c([nH]c3ccccc32)c(=O)n1-c1ccccc1`, the “activation” value was inactive: -15%.
As for `Cc1ccc(Cl)cc1N1CCN(C(=O)c2cc3c(=O)n(C)c4ccccc4c3s2)CC1`, the “activation” value is inactive: -5.05%.
Under `CCOC(=O)CC(=O)CSc1nc2ccccc2c(=O)n1-c1ccc(C(=O)NCCOC)cc1` stands inactive: -19.4%; under `COC(=O)c1ccc(C(=O)OC)c(NC(=O)N2CC3CCCN3c3ccccc32)c1` (stereo unspecified), inactive: -9.64%; under `Cc1cccc(OCC(=O)OCc2cc(=O)n3nc(-c4cccs4)sc3n2)c1`, inactive: -12.2%.
In the case of `O=C(Nc1ccc2nc(SCC(=O)N3CCCC3)sc2c1)c1ccc(Br)cc1`, the “activation” value was inactive: -6.55%.
Regarding `Cc1ccc(CSc2ccc3nnc(CCNS(=O)(=O)c4ccc(C)cc4)n3n2)cc1`, the “activation” value was inactive: -20.3%.
`Cc1ccc2nc(COc3cccc(NC(=O)COc4ccccc4F)c3)cc(=O)n2c1`: the “activation” value was inactive: -9.16%.
Regarding `CCOC(=O)c1cc(-c2ccccc2)n(-c2cccc(C(=O)Nc3cccc(C)c3)c2)c1C`, the “activation” value is inactive: 9.56%.
On to `O=C(C1CC1)N1CCc2cc(Br)cc(S(=O)(=O)N3CCN(c4cccc(Cl)c4)CC3)c21`, for which the “activation” value was inactive: -11.7%.
`COC(=O)c1ccccc1NC(=O)Cn1c(=O)nc(-c2ccccc2)c2cc(Cl)ccc21`: the “activation” value was inactive: -9.74%.
As for `Cc1ccc(NC(=O)c2cc(S(=O)(=O)N3CCCc4ccccc43)ccc2F)cc1F`, the figure is inactive: -31.7%; as for `COc1ccc(Nc2c(-c3ccc(C)o3)nc3ccc(Cl)cn23)cc1`, inactive: -4.39%.
For the molecule `CCc1nn(Cc2cccc(F)c2)c(=O)c2cc3cc(C)ccc3n12`, the “activation” value was inactive: -6.72%.
Consider `CCC(C)NC(=O)Cn1c(=O)n(-c2ccc(Cl)c(Cl)c2)c(=O)c2c(C)c(C(=O)N(CC)CC)sc21` (stereo unspecified), for which the “activation” value is inactive: -10.7%.
For the molecule `Cc1ccc(-n2ncc(C(=O)N3CCN(c4ccccn4)CC3)c2C2CCN(C(=O)OC(C)(C)C)CC2)cc1`, the “activation” value is inactive: -12.4%.
For `CCCCC(=O)Nc1cc2nn(-c3ccc(OCC)cc3)nc2cc1C`, the “activation” value was inactive: -17.7%.
With `Cc1cccc(C)c1Nc1c(-c2cccs2)nc2ncccn12`, the “activation” value is inactive: -12.3%.
For the molecule `CCCCCCCCCCC[C@@H](C[C@@H]1OC(=O)[C@H]1CCCCCC)OC(=O)[C@H](CC(C)C)NC=O`, the “activation” value was inactive: -12.2%.
Consider `Cn1c(=O)c2c(SCC(=O)NCC3CCCO3)nc(-c3cccc(F)c3)nc2n(C)c1=O` (stereo unspecified), for which the “activation” value is inactive: -14.4%.
As to `Cc1cccc(OCCSc2nc3ccc(NC(=O)c4cccs4)cc3s2)c1`, the “activation” value was inactive: -40.6%.
On to `Cc1cccc(Cn2cc(S(=O)(=O)c3ccc(Cl)cc3)c(=O)c3cc4c(cc32)OCO4)c1`, for which the “activation” value was inactive: -14.8%.
For the molecule `CC(=O)c1ccc(NC(=O)c2ccc(NC(=O)CCS(=O)(=O)c3cccs3)cc2)cc1`, the “activation” value was inactive: 10.5%.
Turning to `Cc1ccc(OCC(=O)Nc2cc(-c3nc4ccccc4[nH]3)ccc2C)c(C)c1`, the “activation” value was inactive: -20.7%.
On to `COc1cc(C2c3c(oc4ccc(C)cc4c3=O)C(=O)N2Cc2ccccc2)ccc1O` (stereo unspecified), for which the “activation” value is inactive: -10%.
In the case of `Cc1oc(-c2ccc(Cl)cc2)nc1CSCC(=O)NCc1ccccc1Cl`, the “activation” value is inactive: -14.8%.
With `COc1cccc(C(=O)Nc2c(C(=O)c3ccc(F)cc3)oc3ccccc23)c1`, the “activation” value is inactive: 11.8%.
With `COC(=O)Cc1c(C)c2ccc3c(c2oc1=O)CN(Cc1ccccc1OC)CO3`, the “activation” value was inactive: -14.7%.
As for `CCC(=O)N1CCc2cc(Br)cc(S(=O)(=O)N3CCCC(C(=O)NCc4ccc(OC)cc4)C3)c21` (stereo unspecified), the figure is inactive: -8.47%.
In the case of `CC(CNC(=O)Cn1c(-c2cccs2)cc2ccccc21)c1ccccc1` (stereo unspecified), the “activation” value is inactive: -0.61%.
For the molecule `Cc1ccccc1Nc1cc(C(=O)NCCc2ccc(Cl)cc2)c2ccccc2n1`, the “activation” value is inactive: -13.2%.
For the molecule `Cc1ccc2c(CC(=O)N(Cc3ccc(Cl)cc3)Cc3ccco3)coc2c1`, the “activation” value was inactive: -3.76%.
Turning to `CCC(=O)N1CCCc2cc(S(=O)(=O)N3CCC(C(=O)Nc4ccccc4CC)CC3)ccc21`, the “activation” value was inactive: -9.24%.
With `CCCOc1ccc(C2c3c(-c4ccccc4O)n[nH]c3C(=O)N2CCCOCC)cc1OCC` (stereo unspecified), the “activation” value was inactive: -34.5%.
`Cc1ccc(Cl)cc1N1CCN(CCCNC(=O)c2nnc(Cc3cccc(Cl)c3)o2)CC1`: the “activation” value was inactive: -40.6%.
In the case of `O=C(Nc1cccc(F)c1)c1cccc2c1C(=O)N(C1CCCCC1)C2`, the “activation” value was inactive: -6.26%.
Under `CN1CCc2nc3sc(C(=O)Nc4cccc(C#N)c4)c(N)c3cc2C1` stands inactive: -17%; under `Cc1cc(C)cc(Nc2nnc(-n3nc(C)cc3C)c3ccccc23)c1`, inactive: -25.6%.
Consider `CC1=C(c2ccc(C)c(C)c2)S(=O)(=O)N=C1N1CCC(C(=O)Nc2cccc(F)c2)CC1`, for which the “activation” value was inactive: -10.5%.
With `COc1ccccc1NC(=O)Cn1c(=O)n(-c2cccc(Cl)c2)c(=O)c2c1c1cc(C)ccc1n2C`, the “activation” value was inactive: -6.86%.
As to `COc1cccc(NC(=O)CSc2nnc(-c3cccs3)o2)c1`, the “activation” value was inactive: -25.1%.
For the molecule `Cc1cccc(OCC(=O)Nc2ccc(Cl)c(-c3nc4ccccc4[nH]3)c2)c1`, the “activation” value was inactive: 3.69%.
Take `CCc1ccccc1NC(=O)CSc1ncc(S(=O)(=O)c2ccccc2)c(=O)[nH]1`: the “activation” value is inactive: -10.7%.
